# Measured values reported in PubChem BioAssay AID485294 (National Center for Advancing Translational Sciences (NCATS), 2010).
# In all, about 370,000 compounds went through this assay and about 150 (0.041%) were called active. The inconclusive results got no clear call from the source; some entries with a clear call stand among them for comparison. Calls follow the shape of the dose curve; as a rule, active = well fitted inhibition curve with a large enough effect; inconclusive = small, poorly fitted or top-dose-only effect; inactive = flat fitted curve, though single readings scatter. No potency is given beside an inconclusive call; the fits are too rough.
# Biological target: Beta-lactamase (Escherichia coli (strain K12)) (UniProt P00811)
# UniProt P00811, sequence (P00811 whole entry, looked up): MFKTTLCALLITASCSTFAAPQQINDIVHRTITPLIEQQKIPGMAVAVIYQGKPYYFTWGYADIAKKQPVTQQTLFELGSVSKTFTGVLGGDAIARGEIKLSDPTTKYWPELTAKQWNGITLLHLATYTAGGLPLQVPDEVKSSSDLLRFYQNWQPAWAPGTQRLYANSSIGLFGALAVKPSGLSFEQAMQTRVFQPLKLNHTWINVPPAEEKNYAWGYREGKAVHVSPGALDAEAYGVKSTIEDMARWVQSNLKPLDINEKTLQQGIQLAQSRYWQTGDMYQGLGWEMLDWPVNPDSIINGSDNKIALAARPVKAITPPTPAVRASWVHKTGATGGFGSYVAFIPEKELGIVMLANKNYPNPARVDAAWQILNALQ
# Assay: qHTS Inhibitors of AmpC Beta-Lactamase (assay with detergent); also: nearly all actives have a fitted effect of over 25% in size;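 as to activity change, negative = inhibition: 0% = no-compound wells and -100% = no-enzyme wells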
# Conditions: AmpC hydrolysis of nitrocefin, absorbance 480 nm, 0.01% Triton; activity change, negative = inhibition: at 114 µM (top of the series)
# How it was run: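 20 mM phosphate pH 7.0 + 0.01% (detergent screen) or 0.0001% Triton X-100; 5.3 nM AmpC reagent; cpd preinc 15 min RT; nitrocefin (800 uM stock) to start; A480 q20 s × 4 min; Activity was normalised to no-enzyme and no-compound control wells.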
# Potency is read from the fitted curve at half-maximal effect; tags tell the direction and shape of the fitted curve.
Compound,"activity change, negative = inhibition",Potency
CCc1ccc(-c2nc3cc(NC(=O)c4cc5ccccc5cc4OC)ccc3o2)cc1,inactive: -2.41%,–
Cc1ccc(C)c(CN2C(=O)c3ccccc3S(=O)c3ccc(C(=O)N4CCN(c5ccccc5F)CC4)cc32)c1 (stereo not drawn),inactive: -0.419%,–
FC(F)(F)c1ccccc1NC(=S)NN1CCOCC1,–,"inconclusive [inhibitor, partial curve, poor fit]"
Cc1cc(=O)oc2cc(OCC(=O)N3CC(C)OC(C)C3)ccc12 (stereo not drawn),–,"inconclusive [inhibitor, partial curve]"
Cc1[nH]n(-c2ccccc2)c(=O)c1N=Nc1nccs1,inactive: -2.16%,–
Cc1ccc2occ(/C=N/NC(=O)c3ccccc3Br)c(=O)c2c1,–,"inconclusive [inhibitor, full curve, poor fit]"
COc1ccc2c(c1)sc(=N)n2C,inactive: 5.39%,–
COc1ccccc1NC(=O)COC(=O)C12CC3CC(CC(Cl)(C3)C1)C2,–,"inconclusive [inhibitor, full curve, poor fit]"
CC1CCN(CCCNC(=O)c2cn(C)c3ccc(S(=O)(=O)N(C)C4CCCCC4)cc3c2=O)CC1,inactive: 1.84%,–
CCCC(=O)NCCCc1nc2ccccc2n1CCC,–,"inconclusive [inhibitor, partial curve, poor fit]"
CCOC(=O)C1CCN(Cc2cn[nH]c2-c2ccc(C)cc2)CC1,–,"inconclusive [inhibitor, full curve, poor fit]"
CC(C)(C)NC(=S)NNC(=O)c1cccc(Br)c1,inactive: 3.6%,–
O=S(=O)(/C=C/c1ccccc1)N1CCN(c2ccccc2)CC1,–,"inconclusive [inhibitor, partial curve, poor fit]"
CC(=O)C1=C(O)C(=O)N(CCCN2CCOCC2)C1c1ccccc1[N+](=O)[O-] (stereo not drawn),inactive: -5.79%,–
CCCOc1ccc(C(=O)N2CC3(CC(c4cccc(NC(=O)[C@@H]5CCC(=O)N5)c4)=NO3)C[C@H]2C(=O)NC2(C(N)=O)CC2)cc1 (stereo partly drawn),inactive: -1.43%,–
Cc1ccc(OCCNC(=O)/C=C/c2ccc([N+](=O)[O-])cc2)cc1C,–,"inconclusive [inhibitor, partial curve, poor fit]"
CCOC(=O)C1=C(C)NC(C)=C(C(=O)OC)C1c1cccc(Cl)c1Cl (stereo not drawn),inactive: 2.08%,–
COc1ccc(C2NC(=O)NC(C)=C2C(=O)Nc2cccc(C)c2C)cc1 (stereo not drawn),–,"inconclusive [inhibitor, full curve, poor fit]"
O=C(CN1C(=O)C2(OCCO2)c2ccccc21)c1ccc(F)cc1,–,"inconclusive [inhibitor, full curve, poor fit]"
CN(CC(=O)NCCN1CCN(Cc2ccccc2)CC1)S(=O)(=O)c1cccc2nsnc12,–,"inconclusive [inhibitor, full curve, poor fit]"
CCC(C)Sc1nc2ccccc2c(=O)[nH]1 (stereo not drawn),–,"inconclusive [inhibitor, single point]"
Cc1cccc(/C=C/c2onc(C)c2S(=O)(=O)N2CCC(C(=O)NC(C)C)CC2)c1,–,"inconclusive [inhibitor, full curve, poor fit]"
Cc1ccc(C(=O)CSc2nc3ccccc3c(=O)[nH]2)cc1,–,"inconclusive [inhibitor, partial curve, poor fit]"

Compound,"activity change, negative = inhibition",Potency
COc1ccc(NC(=S)NCc2cccs2)cc1OC,–,"inconclusive [inhibitor, full curve, poor fit]"
CC(C)C(NC(=O)CN1C(=O)c2ccccc2S1(=O)=O)C(C)C,–,"inconclusive [inhibitor, partial curve, poor fit]"
Cc1ccc2[nH]c(-c3ccccc3)c(CN3CCN(C)CC3)c(=O)c2c1,–,"inconclusive [inhibitor, full curve]"
Cc1sc2nc(C)n(/N=C/c3ccc(O)cc3)c(=O)c2c1C,–,"inconclusive [inhibitor, single point]"
COC(=O)c1ccc(NC(=O)CSc2nnc(-c3cccnc3)o2)cc1,–,"inconclusive [inhibitor, partial curve]"
CCOc1cc(C2c3c(oc4ccc(F)cc4c3=O)C(=O)N2Cc2ccc(C)cc2)ccc1O (stereo not drawn),inactive: 1.03%,–
Cc1cc(C(F)(F)F)n2ncc(C(=O)O)c2n1,–,"inconclusive [inhibitor, full curve, poor fit]"
CCOc1ccc(NC(=O)CNC(=O)c2ccco2)cc1,–,"inconclusive [inhibitor, full curve, poor fit]"
O=C(/C=C\Nc1cccc(F)c1)c1cccs1,inactive: -8.77%,–
N#Cc1cnn(CC2CCCCC2)c1N,–,"inconclusive [inhibitor, partial curve, poor fit]"
O=C(O)c1ccc2c(c1)C(=O)N([C@H](Cc1c3ccccc3cc3ccccc13)C(=O)O)C2=O,–,"inconclusive [inhibitor, full curve, poor fit]"
COc1ccc(C)cc1NC(=O)C(OC(=O)c1cnccn1)c1ccccc1 (stereo not drawn),–,"inconclusive [inhibitor, full curve, poor fit]"
CCCOC(=O)/C(C(N)=NCc1ccccc1)=C(\O)OCCC,–,"inconclusive [inhibitor, full curve, poor fit]"
Cc1cc(OCCn2cnc3ccccc3c2=O)ccc1[N+](=O)[O-],–,"inconclusive [inhibitor, full curve, poor fit]"
Cc1ccc(-c2nnc(Nc3ccc4c(c3)nc(C)n4C)c3ccccc23)cc1,–,"inconclusive [inhibitor, partial curve, poor fit]"
COc1ccc(S(=O)(=O)N(C)c2ccc(C(=O)N3CCC(C(N)=O)CC3)cc2)cc1,–,"inconclusive [inhibitor, partial curve]"
CC(=O)c1cccc(OCCCOc2cccc3cccnc23)c1,–,"inconclusive [inhibitor, full curve, poor fit]"
O=S(=O)(Nc1nc2n(n1)C(c1ccccc1)C=C(c1ccc(Cl)cc1)N2)c1ccccc1 (stereo not drawn),inactive: 25%,–
CCCCCC(=O)N/N=C(\C)c1ccc(NC(=O)c2ccco2)cc1,–,"inconclusive [inhibitor, full curve, poor fit]"
CN1CCN(c2ccccc2NC(=O)c2ccc(-c3ccc(Cl)c(Cl)c3)o2)CC1,inactive: 3.03%,–
CC(=O)Nc1ccc(NC(=O)COc2ncnc3ccccc23)cc1,–,"inconclusive [inhibitor, full curve, poor fit]"
C=CCN1C(=O)/C(=C\C=C2\N(C)c3ccccc3C2(C)C)SC1=S,inactive: -7.2%,–
CC(=O)C(Cc1ccccc1)NC(=O)CN(C)Cc1ccccc1Cl (stereo not drawn),–,"inconclusive [inhibitor, single point]"

Compound,"activity change, negative = inhibition",Potency
Cc1ccc(-c2nnc(SCC(=O)N3CCCC3)o2)cc1C,–,"inconclusive [inhibitor, full curve, poor fit]"
CN(C)c1ccc(S(=O)(=O)N2CCCCC2)cc1NC(=O)CN1C(=O)NC(C)(c2ccccc2)C1=O (stereo not drawn),–,"inconclusive [inhibitor, partial curve]"
CCCCc1nnc(NC(=O)CN2C(=O)C3CCCCC3C2=O)s1 (stereo not drawn),–,"inconclusive [inhibitor, full curve, poor fit]"
O=C(CN(Cc1ccccc1Cl)C(=O)CNS(=O)(=O)c1ccccc1)NCC1CCCO1 (stereo not drawn),inactive: -12.3%,–
N#Cc1c(C#N)c(O)c2ccccc2c1O,inactive: -7.76%,–
COc1cc(CNn2c(C)n[nH]c2=S)cc(Cl)c1OCC(=O)NC(C)(C)C,inactive: -12.1%,–
CCOc1ccc(-c2ccc(CO)o2)cc1N,inactive: 4.15%,–
O=C(NCc1cccc(Cl)c1)C1CCC(=O)N(CCCN2CCCC2=O)C1 (stereo not drawn),–,"inconclusive [inhibitor, full curve, poor fit]"
CCC(C)c1ccccc1NC(=O)C(C)OC(=O)c1ccco1 (stereo not drawn),–,"inconclusive [inhibitor, full curve, poor fit]"
O=C1N=C(N2CCCC2)S/C1=C\c1ccccc1,–,"inconclusive [inhibitor, single point]"
Cc1ccccc1C1NC(=S)NC2=C1C(=O)CC(C)(C)C2 (stereo not drawn),–,"inconclusive [inhibitor, full curve]"
C[C@H](NC(=O)[C@H](Cc1ccccc1)n1c(=O)[nH]c2ccccc2c1=O)C(=O)N1CCC[C@H]1C(=O)O,–,"inconclusive [inhibitor, partial curve]"
Cc1cc(-c2cc(-c3ccc(Cl)cc3)nc(N)c2C#N)co1,inactive: 0.59%,–
CN(C(=O)c1cc2c(=O)n3ccccc3nc2n1C)C1CCCCC1,inactive: 8.67%,–
COc1ccc(OC)c(CNS(=O)(=O)c2ccc(-c3cc(C(F)(F)F)on3)s2)c1,inactive: -5.5%,–
CCOC(=O)c1noc2ncn(CC(=O)O)c(=O)c12,–,"inconclusive [inhibitor, single point]"
CCCOc1ccc(-c2nnn(CC(=O)c3ccc4c(c3)OCCO4)n2)cc1,–,"inconclusive [inhibitor, partial curve, poor fit]"
Cc1cc(=O)[nH]c2ccc(S(=O)(=O)NC3CCCCC3)cc12,inactive: -15.3%,–
O=C(NCc1cccs1)C(=O)c1c[nH]c2ccccc12,inactive: -5.09%,–
Cc1ccc(C)c(C(=O)C(C)Sc2nc3nn(-c4ccccc4)c(=O)c-3c3n2CCCCC3)c1 (stereo not drawn),–,"inconclusive [inhibitor, full curve, poor fit]"
Cc1ccc(NC(=O)c2cnccn2)c(Br)c1,inactive: -17%,–
COc1ccc(S(=O)(=O)N2CCOCC2)cc1NC(=O)Cc1coc2cc(C)ccc12,–,"inconclusive [inhibitor, partial curve, poor fit]"
